± gives the standard error. Variants at the floor of the assay are shown more often than the library holds them.
B1: glmS ribozyme (parent)
chain: AUAAAAGCGCCAGAACUACAGAAAUGUAGUUGACGAGGAGGAGGUUUAUCGAAUUUUCGGCGGAUGCCUCCAAA

Key:
Conditions in all cases: with glucosamine-6-phosphate
glucosamine-6-phosphate [1] = variants of: B1; assay: self-cleavage kobs at 40 uM GlcN6P; higher = faster cleavage; RNA array
How it was run: (§1)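 Over ~14 h at 37 °C, tiles were imaged as glucosamine-6-phosphate (40 μM to 10 mM) in HEPES/KCl/Mg(OAc)2 buffer flowed across sequenced MiSeq chips. The chips carried barcoded ribozyme variants transcribed in situ by E. coli RNA polymerase and tracked with a hybridised Cy3 probe. After normalisation to baseline and to non-cleaving reference variants, one- or two-exponential decay fits of per-tile medians gave kobs. kcat and KM followed from weighted Michaelis–Menten fits across concentrations.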

glucosamine-6-phosphate [2] = variants of: B1; assay: self-cleavage kobs at 10000 uM GlcN6P; higher = faster cleavage; RNA array
How it was run: as §1

glucosamine-6-phosphate [3] = variants of: B1; assay: self-cleavage kobs at 2500 uM GlcN6P; higher = faster cleavage; RNA array
How it was run: as §1

glucosamine-6-phosphate [4] = variants of: B1; assay: self-cleavage kobs at 160 uM GlcN6P; higher = faster cleavage; RNA array
How it was run: as §1

glucosamine-6-phosphate [5] = variants of: B1; assay: self-cleavage kobs at 640 uM GlcN6P; higher = faster cleavage; RNA array
How it was run: as §1

Row | Variant | self-cleavage kobs at 40 uM GlcN6P (glucosamine-6-phosphate [1]) [s⁻¹] | self-cleavage kobs at 10000 uM GlcN6P (glucosamine-6-phosphate [2]) [s⁻¹] | self-cleavage kobs at 2500 uM GlcN6P (glucosamine-6-phosphate [3]) [s⁻¹] | self-cleavage kobs at 160 uM GlcN6P (glucosamine-6-phosphate [4]) [s⁻¹] | self-cleavage kobs at 640 uM GlcN6P (glucosamine-6-phosphate [5]) [s⁻¹]
1 | C34A G35A G59C C61G | < 1e-05 | < 1e-05 | – | – | –
2 | U30A G59A G63A | < 1e-05 | – | – | – | –
3 | G35U A52G G59A | < 1e-05 | – | – | – | –
4 | G29U U49G | < 1e-05 | 8.25e-05 ± 1.9e-05 | 3.79e-05 ± 1.7e-05 | – | –
5 | G37A U54A | 7.84e-05 ± 1.8e-05 | – | – | – | –
6 | U30C U47C | < 1e-05 | – | – | < 1e-05 | –
7 | A33U G37U U69A | < 1e-05 | – | – | – | –
8 | G38U G43U | < 1e-05 | < 1e-05 | < 1e-05 | < 1e-05 | < 1e-05
9 | G29U U54C | 0.000157 ± 3.1e-05 | 0.00596 ± 0.0013 | 0.00249 ± 0.00049 | 0.000421 ± 6.8e-05 | 0.00146 ± 0.00023
10 | A33G U55G | < 1e-05 | < 1e-05 | < 1e-05 | < 1e-05 | –
11 | C16A A48U C50U | < 1e-05 | < 1e-05 | < 1e-05 | – | –
12 | A33G A36G U45G A53G | < 1e-05 | < 1e-05 | < 1e-05 | – | –
13 | A36U G38U U45C | < 1e-05 | – | – | – | –
14 | G35U G41U U45G | < 1e-05 | < 1e-05 | < 1e-05 | < 1e-05 | < 1e-05
15 | A15U G32U A33U | < 1e-05 | – | – | – | –
16 | A15U A53U | 9.26e-05 ± 9.9e-06 | 0.0042 ± 0.00042 | 0.00314 ± 0.00055 | 0.000245 ± 3.8e-05 | 0.000755 ± 0.00012
17 | A15U U30C G51C | < 1e-05 | – | – | – | –
18 | A36C U45C U46G | < 1e-05 | – | – | – | –
19 | G38C U56C | < 1e-05 | < 1e-05 | < 1e-05 | < 1e-05 | –
20 | G37U A52U | < 1e-05 | – | < 1e-05 | – | < 1e-05
21 | G35C A39G C70U | < 1e-05 | < 1e-05 | – | – | –
22 | A36C U45G U69G | < 1e-05 | – | < 1e-05 | – | –
23 | U31C A48U U69A | < 1e-05 | < 1e-05 | – | – | < 1e-05
24 | U30C G40C | < 1e-05 | – | – | – | –
25 | A36C G38C A48U | < 1e-05 | – | < 1e-05 | – | –

Row | Variant | self-cleavage kobs at 40 uM GlcN6P (glucosamine-6-phosphate [1]) [s⁻¹] | self-cleavage kobs at 10000 uM GlcN6P (glucosamine-6-phosphate [2]) [s⁻¹] | self-cleavage kobs at 2500 uM GlcN6P (glucosamine-6-phosphate [3]) [s⁻¹] | self-cleavage kobs at 160 uM GlcN6P (glucosamine-6-phosphate [4]) [s⁻¹] | self-cleavage kobs at 640 uM GlcN6P (glucosamine-6-phosphate [5]) [s⁻¹]
26 | G38A U45C | < 1e-05 | < 1e-05 | < 1e-05 | < 1e-05 | < 1e-05
27 | A15U G29U G60C | < 1e-05 | – | – | – | –
28 | U31A A39U | 0.000161 ± 2.9e-05 | 0.00871 ± 0.0014 | 0.00802 ± 0.0015 | 0.000508 ± 8.4e-05 | 0.00196 ± 0.00029
29 | G38A G40C | < 1e-05 | < 1e-05 | – | < 1e-05 | < 1e-05
30 | A33G G43A | < 1e-05 | < 1e-05 | – | – | –
31 | G29A G43A | < 1e-05 | – | < 1e-05 | < 1e-05 | < 1e-05
32 | G29A G43U | < 1e-05 | < 1e-05 | < 1e-05 | – | < 1e-05
33 | G35C G51U | < 1e-05 | < 1e-05 | < 1e-05 | < 1e-05 | < 1e-05
34 | A33G U47A | < 1e-05 | – | – | – | –
35 | A36U A53U G60A U69A | < 1e-05 | – | – | – | –
36 | G35C C68A C71U | < 1e-05 | < 1e-05 | < 1e-05 | – | < 1e-05
37 | G35U U55A C58A | < 1e-05 | – | < 1e-05 | < 1e-05 | < 1e-05
38 | C16U G41U A53U | 3.27e-05 ± 1.6e-05 | – | – | – | –
39 | C34A G63C | < 1e-05 | < 1e-05 | < 1e-05 | < 1e-05 | < 1e-05
40 | A33C U46C C58G | < 1e-05 | – | – | – | –
41 | G35U A36C G44U U55A | < 1e-05 | – | – | – | –
42 | G29C G59C | < 1e-05 | < 1e-05 | – | – | < 1e-05
43 | U31G G43C | < 1e-05 | – | < 1e-05 | < 1e-05 | < 1e-05
44 | A36G C50U | < 1e-05 | < 1e-05 | < 1e-05 | < 1e-05 | < 1e-05
45 | A36G C50G | 3.66e-05 ± 1.5e-05 | – | – | – | –
46 | G38C U47A | < 1e-05 | – | < 1e-05 | < 1e-05 | –
47 | G29A A48U | < 1e-05 | – | – | < 1e-05 | –
48 | A15U G40A C50G C68A | < 1e-05 | < 1e-05 | – | – | –
49 | G32U G37U G60C | < 1e-05 | – | – | – | –

From the supplement of paper PMC7125110
